Measurements from the supplement of paper PMC12217912.
The list shows a part of the results. Sequences were assembled here from the parent chain. Inactive controls read about 0.05.

B1: TEV protease; numbered along this chain (parent)
chain: MGESLFKGPRDYNPISSSICHLTNESDGHTTSLYGIGFGPFIITNKHLFRRNNGTLVVQSLHGVFKVKDTTTLQQHLVDGRDMIIIRMPKDFPPFPQKLKFREPQREERICLVTTNFQTKSMSSMVSDTSCTFPSGDGIFWKHWIQTKDGQCGSPLVSTRDGFIVGIHSASNFTNTNNYFTSVPKNFMELLTNQEAQQWVSGWRLNADSVLWGGHKVFMVKPEEPFQPVKEATQL

Variants of: B1
Test: raw area under fraction-flipped curve 0-4 h after induction (AUC4h, not background-subtracted), DNA-recorder readout of cleavage of the substrate (dimensionless); higher = more cleavage of the substrate by the protease variant
Conditions: temperature: 34 °C; time window: 0-4 h after rhamnose induction
Experimental: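 In vivo DNA recorder in E. coli TOP10(DE3) ΔrhaA at 34 °C. Each TEVp single-site mutant (parent TEVp 0) is paired with a single-site variant of the 7-mer TEVs (canonical ENLYFQ|S). The substrate sits between flexible linkers in a Bxb1-sfGFP-TEVs-SsrA fusion, so cleavage stabilises Bxb1 and speeds flipping of a recombination array, read by NGS. The value is the raw area under the fraction-flipped curve over 0-4 h after rhamnose induction (AUC4h), with ≥20 reads per time point. It is not background-subtracted; inactive controls average about 0.047.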
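Further: Bxb1 expression induced with 0.2% (w/v) L-rhamnose at OD600 near 0.5, cultures sampled hourly, flipped fraction per protease–substrate barcode pair counted by paired-end Illumina sequencing.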

Row | Variant | area with substrate ECLYFQS | area with substrate ELLYFQS | area with substrate EQLYFQS | area with substrate ESLYFQS | area with substrate EYLYFQS | area with substrate EILYFQS | area with substrate EKLYFQS | area with substrate ERLYFQS | area with substrate EVLYFQS | area with substrate EMLYFQS
1 | F173R | 0.0833 | 0.0727 | 0.0909 | 0.0928 | 0.0911 | – | – | – | – | –
2 | F117W | 0.125 | 0.0929 | – | 0.136 | 0.103 | 0.102 | 0.0869 | 0.0808 | 0.103 | –
3 | F117D | 0.0948 | 0.123 | 0.129 | – | – | – | – | – | 0.0851 | 0.0932
4 | V64S | 0.0832 | – | 0.123 | 0.103 | – | – | 0.135 | 0.123 | – | –
5 | T159R | 0.169 | – | – | – | – | 0.0987 | 0.134 | – | – | –
6 | L190S | 0.0595 | 0.0788 | – | 0.106 | 0.0883 | 0.0587 | 0.0947 | 0.0647 | 0.0765 | –
7 | L190C | 0.1 | – | 0.109 | 0.112 | – | – | – | 0.0934 | 0.0172 | –
8 | T147D | 0.0763 | 0.0741 | – | – | – | 0.0684 | – | – | – | –
9 | F38D | 0.0695 | 0.0476 | – | – | 0.0612 | – | – | – | – | –
10 | T233C | 0.115 | 0.0869 | 0.092 | 0.077 | 0.0962 | 0.0952 | 0.0911 | 0.103 | 0.08 | –
11 | M83Y | 0.058 | 0.0461 | 0.0606 | 0.05 | – | 0.0261 | 0.0748 | 0.01 | 0.0602 | –
12 | K221M | – | 0.0648 | 0.0848 | 0.0989 | 0.0921 | 0.0833 | 0.11 | 0.0875 | – | 0.107
13 | K221C | 0.112 | 0.0996 | 0.206 | 0.0879 | – | 0.0798 | 0.122 | 0.0917 | 0.112 | 0.0947
14 | K221H | 0.0938 | – | 0.0994 | 0.105 | – | 0.0769 | 0.0904 | 0.0872 | 0.095 | –
15 | E231P | 0.139 | 0.149 | – | 0.099 | – | – | – | – | 0.0898 | 0.105
16 | E231R | 0.0946 | – | 0.117 | – | 0.106 | 0.119 | 0.0966 | 0.0957 | 0.0787 | –
17 | R109F | 0.12 | – | – | 0.128 | – | 0.1 | 0.0968 | 0.125 | 0.0857 | 0.119
18 | F133T | 0.118 | 0.115 | 0.125 | 0.122 | 0.132 | 0.115 | 0.1 | – | – | 0.112
19 | P93F | 0.0994 | – | – | 0.0792 | 0.102 | 0.0873 | 0.0873 | – | – | –

Row | Variant | area with substrate ECLYFQS | area with substrate ELLYFQS | area with substrate EQLYFQS | area with substrate ESLYFQS | area with substrate EYLYFQS | area with substrate EILYFQS | area with substrate EKLYFQS | area with substrate ERLYFQS | area with substrate EVLYFQS | area with substrate EMLYFQS
20 | P93N | 0.11 | – | – | – | – | 0.121 | 0.0921 | 0.0955 | – | –
21 | N175W | 0.0671 | – | – | – | – | 0.0584 | – | – | 0.0867 | 0.0705
22 | F226S | 0.1 | 0.1 | 0.106 | 0.102 | 0.088 | 0.0845 | – | 0.118 | 0.0956 | 0.138
23 | V220L | 0.0846 | 0.0756 | 0.103 | 0.0978 | – | 0.0829 | – | 0.101 | 0.0934 | 0.107
24 | V220Y | 0.0914 | 0.0847 | 0.103 | 0.0953 | 0.0944 | 0.0871 | 0.0938 | 0.0899 | 0.118 | 0.13
25 | L235A | 0.11 | 0.0701 | 0.12 | 0.132 | 0.125 | – | 0.104 | 0.124 | 0.0877 | 0.127
26 | L235S | 0.124 | – | 0.115 | 0.0637 | – | – | – | 0.114 | 0.0942 | –
27 | K7I | 0.07 | – | 0.0782 | 0.0561 | 0.0525 | – | 0.0733 | 0.0732 | – | 0.0794
28 | K7P | 0.102 | 0.0726 | 0.0909 | – | – | 0.0808 | 0.0923 | – | 0.0829 | –
29 | F6R | 0.091 | 0.0908 | – | 0.0976 | – | 0.105 | – | – | – | –
30 | F6K | – | – | – | 0.0936 | – | – | 0.0805 | 0.0909 | 0.102 | –
31 | F218Y | 0.123 | – | – | – | – | 0.102 | – | 0.108 | – | –
32 | V126L | 0.119 | 0.119 | – | 0.0948 | – | 0.0751 | – | – | – | –
33 | T114D | 0.124 | – | 0.156 | – | – | – | – | 0.0836 | – | –
34 | T115P | 0.0778 | – | 0.129 | – | 0.0678 | 0.125 | – | 0.0828 | 0.125 | –
35 | R87W | 0.139 | – | – | 0.0974 | – | 0.0964 | 0.0979 | 0.102 | 0.0891 | –
36 | P222N | 0.0969 | 0.106 | 0.0889 | 0.101 | – | 0.0861 | 0.112 | 0.0981 | 0.092 | 0.126
37 | G80F | 0.0843 | 0.0673 | 0.12 | 0.0963 | 0.103 | – | 0.0998 | 0.0659 | – | 0.0863

Same assay, conditions: temperature: 34 °C; time window: 0-4 h after rhamnose induction

Row | Variant | area with substrate EDLYFQS | area with substrate EELYFQS | area with substrate ETLYFQS | area with substrate EFLYFQS | area with substrate EWLYFQS | area with substrate EGLYFQS | area with substrate EHLYFQS | area with substrate EPLYFQS | area with substrate EALYFQS
38 | V64S | 0.131 | 0.0949 | 0.108 | – | – | – | – | – | –
39 | T159R | – | – | – | 0.13 | 0.136 | – | – | – | –
40 | L190S | – | – | 0.11 | – | 0.102 | – | – | – | –
41 | L190C | – | – | – | – | 0.0514 | 0.0949 | 0.0907 | 0.0849 | –
42 | T147D | – | – | – | – | 0.0444 | – | 0.0803 | – | –
43 | T233C | – | – | 0.0964 | – | – | 0.0255 | – | – | 0.117
44 | M83Y | – | – | 0.0791 | – | – | – | – | – | –
45 | K221M | 0.113 | 0.104 | – | – | 0.0816 | – | 0.0991 | 0.0728 | 0.0918
46 | K221C | – | 0.105 | 0.0771 | 0.0956 | 0.085 | – | – | 0.108 | 0.0968
47 | K221H | 0.111 | – | 0.114 | 0.113 | 0.088 | – | – | 0.126 | 0.11
48 | E231P | – | – | – | – | 0.0994 | 0.128 | – | 0.169 | –
49 | E231R | – | – | – | 0.088 | – | 0.109 | 0.0869 | – | 0.114
50 | R109F | – | – | – | 0.0899 | 0.0496 | – | – | 0.0998 | –
51 | F133T | – | – | – | – | 0.108 | – | – | – | –
52 | P93F | – | – | 0.0931 | – | – | – | – | – | –
53 | P93N | – | – | – | – | – | – | – | 0.151 | –

Row | Variant | area with substrate EDLYFQS | area with substrate EELYFQS | area with substrate ETLYFQS | area with substrate EFLYFQS | area with substrate EWLYFQS | area with substrate EGLYFQS | area with substrate EHLYFQS | area with substrate EPLYFQS | area with substrate EALYFQS
54 | N175W | – | – | – | – | – | 0.0603 | – | – | –
55 | F226S | 0.133 | – | 0.125 | – | 0.0879 | 0.103 | – | – | 0.0996
56 | V220L | 0.179 | – | – | – | 0.0937 | 0.0988 | – | – | 0.126
57 | V220Y | – | 0.122 | 0.134 | 0.0797 | – | – | – | 0.0953 | 0.1
58 | L235A | – | – | – | 0.0913 | – | 0.0909 | 0.0564 | 0.119 | 0.148
59 | L235S | – | – | – | – | 0.113 | 0.09 | – | – | –
60 | K7I | – | – | – | – | – | 0.0712 | – | – | –
61 | K7P | – | – | 0.0955 | – | 0.0758 | – | – | 0.102 | –
62 | F6R | – | – | – | – | 0.0804 | 0.0989 | – | 0.0934 | –
63 | F6K | 0.115 | – | – | – | – | – | – | – | –
64 | F218Y | – | – | 0.162 | – | – | – | 0.115 | – | –
65 | T114D | – | – | – | – | 0.0865 | 0.0853 | 0.082 | 0.0983 | –
66 | R87W | – | – | – | – | 0.106 | 0.095 | – | 0.116 | –
67 | P222N | 0.138 | 0.13 | – | – | – | 0.0654 | 0.0841 | 0.118 | 0.122
68 | G80F | 0.13 | – | – | 0.0635 | 0.101 | 0.108 | 0.103 | 0.106 | –
